# According to PubChem BioAssay (Tox21):
# Where “and” joins values, the source holds several entries; their conditions need not be identical. Identical values can stand only once. This list was built around the results that the source calls inconclusive (neither active nor inactive); the mix of calls is not that of the screen. For part of these data: A potency beside an inconclusive call is a rough fit, not a confirmed value. Calls of active or inactive are those of the source. Unless noted, calls follow the shape of the dose curve; as a rule, active = well fitted curve in the direction sought with a large enough effect in the repeat runs; inconclusive = weak or mixed curves; inactive = no such curve, though single readings can be large; an effect the other way counts as inactive or inconclusive.
# What was measured:
# [1] = qHTS assay to identify small molecule antagonists of the peroxisome proliferator-activated receptor delta (PPARd) signaling pathway - cell viability counter screen (AID 743213); conditions: PPARd-bla HEK293H viability, CellTiter-Glo luminescence, 17 h; viability change, negative = cytotoxic: at 62 µM (top of the series) unless noted; also: nearly all actives have a fitted effect of over 50% in size; also: potency is read from the fitted curve at half-maximal effect; as to viability change, negative = cytotoxic: % is scaled to controls: 0 for no effect and ±100 for the full control effect
# Method in brief: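 Luminescence from CellTiter-Glo, added after the bla read and incubated 30 min at room temperature, gives viability of HEK293H PPARd-bla cells exposed to compounds for 17 h at 37 C with 300 nM L165041.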
# [2] = qHTS assay to identify small molecule agonists of the farnesoid-X-receptor (FXR) signaling pathway - cell viability counter screen (AID 743218); conditions: FXR-bla HEK293T viability, CellTiter-Glo luminescence, 16 h; viability change, negative = cytotoxic: at 62.6 µM (top of the series) unless noted; also: potency is read from the fitted curve at half-maximal effect; nearly all actives have a fitted effect of over 45% in size
# Method in brief: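 Quantitative HTS counter screen measuring ATP-based viability via CellTiter-Glo luminescence in HEK 293T cells carrying a UAS-driven beta-lactamase reporter, after 16 h compound exposure at 37 C.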
# [3] = qHTS assay to identify small molecule agonists of the vitamin D receptor (VDR) signaling pathway - cell viability counter screen (AID 743224); conditions: VDR-bla HEK293T viability, CellTiter-Glo luminescence, 16 h; activity change, negative = cytotoxicity: at 62.6 µM (top of the series); also: nearly all actives have a fitted effect of over 50% in size; also: potency is read from the fitted curve at half-maximal effect; as to activity change, negative = cytotoxicity: % is scaled to controls: 0 for no effect and ±100 for the full control effect
# Method in brief: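 CellTiter-Glo viability readout on VDR-bla cells, measured after 16 h of compound treatment at 37C in the same wells.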
# [4] = qHTS assay to identify small molecule agonists of the endoplasmic reticulum stress response signaling pathway - cell viability counter screen (AID 1159517; calls by dose curve; also: nearly all actives have a fitted effect of over 50% in size; also: potency is read from the fitted curve at half-maximal effect;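 as to activity change, negative = cytotoxicity: HeLa cells carrying an ER stress response element beta-lactamase reporter; % is scaled to controls: 0 for no effect and ±100 for the full control effect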)
# Method in brief: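 In parallel with the ESRE reporter read, cytotoxicity was scored by CellTiter-Glo luminescence (30 min, room temperature) on HeLa ESRE-bla cells dosed for 5 hr.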
# [5] = qHTS assay to identify small molecule antagonists of the retinoid-related orphan receptor gamma (ROR-gamma) signaling pathway - cell viability counter screen (AID 1159520); also: nearly all actives have a fitted effect of over 50% in size; also: potency is read from the fitted curve at half-maximal effect
# Method in brief: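 Tet-on ROR gamma CHO cells were given compounds for 2 hr, then doxycycline hyclate at 1 uM final, and incubated 16 hr at 37 C. Viability was measured as ATP content by CellTiter-Glo luminescence.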
# [6] = biological target: Nuclear receptor ROR-gamma (Homo sapiens) (UniProt P51449); experiment: qHTS assay to identify small molecule antagonists of the retinoid-related orphan receptor gamma (ROR-gamma) signaling pathway (AID 1159521; also: nearly all actives have a fitted effect of over 50% in size; also: potency is read from the fitted curve at half-maximal effect)
# Method in brief: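 Cells were plated, rested 4 h at 37 C, exposed to compounds for 2 h, then given 1 uM final doxycycline hyclate to induce RORγ expression. After 16 h, ONE-Glo luminescence from the ROR response element reporter was measured.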
# [7] = biological target: Retinoic acid receptor RXR-alpha (Homo sapiens) (UniProt P19793); experiment: qHTS assay to identify small molecule agonists of the RXR signaling pathway (AID 1159527; calls by dose curve; also: nearly all actives have a fitted effect of over 35% in size; also: potency is read from the fitted curve at half-maximal effect); conditions: HEK293T RXRa-UAS-bla, beta-lactamase ratio, 16 h; activation: at 76.8 µM (top of the series) unless noted
# Chain of UniProt P19793 (P19793 whole entry, looked up): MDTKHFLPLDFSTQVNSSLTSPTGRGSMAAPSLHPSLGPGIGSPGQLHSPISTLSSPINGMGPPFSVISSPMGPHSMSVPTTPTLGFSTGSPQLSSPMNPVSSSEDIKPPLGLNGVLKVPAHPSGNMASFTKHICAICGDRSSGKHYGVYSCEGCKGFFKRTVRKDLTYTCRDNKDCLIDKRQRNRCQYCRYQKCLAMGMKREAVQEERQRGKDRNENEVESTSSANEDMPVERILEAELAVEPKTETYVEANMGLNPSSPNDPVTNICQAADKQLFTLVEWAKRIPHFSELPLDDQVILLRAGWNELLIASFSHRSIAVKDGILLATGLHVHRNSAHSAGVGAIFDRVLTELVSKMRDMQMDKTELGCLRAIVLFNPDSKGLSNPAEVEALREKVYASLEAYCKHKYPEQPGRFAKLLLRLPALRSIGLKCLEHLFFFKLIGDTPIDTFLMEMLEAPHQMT
# Method in brief: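 Cells plated at 2,000/well, rested 5 hr at 37 C, pin-dosed with DMSO compound solutions, incubated 16 hr, then loaded with B/G FRET substrate for 2 hr at RT before dual-emission fluorescence reading.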
# [8] = qHTS assay to identify small molecule agonists of the RXR signaling pathway - cell viability counter screen (AID 1159529)
# Method in brief: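 Steps: seed RXR-alpha-UAS-bla HEK 293T cells in assay medium containing 2% charcoal-stripped FBS; incubate 5 hr; add compounds in DMSO; incubate 16 hr at 37 C; after the bla read, add CellTiter-Glo and read luminescence at 30 min.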
# [9] = qHTS assay to identify small molecule antagonists of the farnesoid-X-receptor (FXR) signaling pathway - cell viability counter screen (AID 743221; active = well fitted cell-killing curve with a large enough effect in the repeat runs, not every such curve was filed as active; inconclusive = weak or mixed curves, or effect the other way; inactive = no such curve, though single readings can be large or run the other way); conditions: FXR-bla HEK293T viability, CellTiter-Glo luminescence, 16 h; activity change, negative = cytotoxicity: at 62.6 µM (top of the series)
# Method in brief: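 Multiplexed counter screen: viability of FXR-bla HEK 293T cells under agonist stimulation by chenodeoxycholic acid (50 uM, final) and test compound for 16 h at 37 C, measured by CellTiter-Glo luminescence in the reporter wells.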
# [10] = biological target: Peroxisome proliferator-activated receptor delta (Homo sapiens) (UniProt Q03181); experiment: qHTS assay to identify small molecule antagonists of the peroxisome proliferator-activated receptor delta (PPARd) signaling pathway (AID 743215; active = well fitted inhibition curve with a large enough effect in the signal ratio in the repeat runs, not every such curve was filed as active; inconclusive = weak or mixed curves, or effect the other way; inactive = no such curve, though single readings can be large or run the other way; the % refers to the signal ratio;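 also: cells stimulated with agonist L165041 at 300 nM final during compound exposure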; also: potency is read from the fitted curve at half-maximal effect); conditions: HEK293H PPARd-UAS-bla, beta-lactamase FRET ratio, antagonist, 17 h; ratio activity, negative = inhibition: at 62 µM (top of the series) unless noted
# Chain of UniProt Q03181 (Q03181 whole entry, looked up): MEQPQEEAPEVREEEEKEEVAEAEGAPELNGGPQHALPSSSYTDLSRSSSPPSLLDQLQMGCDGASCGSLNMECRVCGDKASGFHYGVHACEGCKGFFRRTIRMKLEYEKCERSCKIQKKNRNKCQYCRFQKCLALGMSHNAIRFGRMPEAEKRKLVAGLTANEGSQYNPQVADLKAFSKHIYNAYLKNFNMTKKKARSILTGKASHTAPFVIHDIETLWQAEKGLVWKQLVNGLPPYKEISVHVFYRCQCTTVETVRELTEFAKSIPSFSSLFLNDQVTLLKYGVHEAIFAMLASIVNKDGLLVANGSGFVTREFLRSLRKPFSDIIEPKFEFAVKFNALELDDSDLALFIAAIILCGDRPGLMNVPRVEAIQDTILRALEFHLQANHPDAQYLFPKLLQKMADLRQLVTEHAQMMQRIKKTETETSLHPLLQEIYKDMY
# Method in brief: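 Here, a reporter line (HEK293H, beta-lactamase under a UAS) measures PPARd signaling. Compounds are tested against agonist L165041 at 300 nM final concentration over 17 h at 37 C, with fluorescence read after substrate.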
# [11] = biological target: Vitamin D3 receptor (Homo sapiens) (UniProt P11473); experiment: qHTS assay to identify small molecule antagonists of the vitamin D receptor (VDR) signaling pathway (AID 743223; active = well fitted inhibition curve with a large enough effect in the signal ratio in the repeat runs, not every such curve was filed as active; inconclusive = weak or mixed curves, or effect the other way; inactive = no such curve, though single readings can be large or run the other way; the % refers to the signal ratio; also: potency is read from the fitted curve at half-maximal effect); conditions: VDR-UAS-bla HEK293T, beta-lactamase FRET ratio, 16 h; activity change, negative = inhibition: at 61 µM (top of the series) unless noted
# Chain of UniProt P11473 (P11473 whole entry, looked up): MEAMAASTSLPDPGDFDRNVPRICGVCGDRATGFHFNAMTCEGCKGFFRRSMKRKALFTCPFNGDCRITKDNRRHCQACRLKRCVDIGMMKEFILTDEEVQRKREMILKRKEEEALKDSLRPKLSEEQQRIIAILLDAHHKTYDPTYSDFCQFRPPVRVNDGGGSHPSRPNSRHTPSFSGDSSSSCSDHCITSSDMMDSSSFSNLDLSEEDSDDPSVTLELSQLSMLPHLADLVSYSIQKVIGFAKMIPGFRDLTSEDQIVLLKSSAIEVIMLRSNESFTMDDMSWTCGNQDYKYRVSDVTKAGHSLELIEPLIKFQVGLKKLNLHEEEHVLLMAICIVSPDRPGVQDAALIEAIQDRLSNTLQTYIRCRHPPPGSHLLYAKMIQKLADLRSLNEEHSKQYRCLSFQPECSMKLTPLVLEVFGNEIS
# Method in brief: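 Cells carrying a VDR-driven beta-lactamase reporter (VDR-bla) were co-treated with compound and 3 nM final 1alpha,25-dihydroxyvitamin D3 for 16 h at 37C; reporter activity was measured as FRET substrate fluorescence after 2 h at room temperature.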
# [12] = qHTS assay to identify small molecule antagonists of the vitamin D receptor (VDR) signaling pathway - cell viability counter screen (AID 743225); conditions: VDR-bla HEK293T viability, CellTiter-Glo luminescence, 16 h; viability change, negative = cytotoxic: at 61 µM (top of the series) unless noted
# Method in brief: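 HEK293T VDR-bla; cpd + 1a,25-(OH)2D3 3 nM final, 16 h 37C/5% CO2; B/G FRET substrate 2 h RT; then CellTiter-Glo 30 min RT, luminescence.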
# [13] = qHTS assay to identify small molecule antagonists of the retinoid acid receptor (RAR) signaling pathway - cell viability counter screen (AID 1159551); also: potency is read from the fitted curve at half-maximal effect; nearly all actives have a fitted effect of over 35% in size
# Method in brief: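 In this counter screen, the RARE-luciferase line C3RL4 was exposed for 6 h at 37 C and 5% CO2 to compounds with retinol at 1 uM final. Cellular ATP, read by luminescence, served as the viability measure.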
# [14] = biological target: Bile acid receptor (Homo sapiens) (UniProt Q96RI1); experiment: qHTS assay to identify small molecule antagonists of the farnesoid-X-receptor (FXR) signaling pathway (AID 743217; active = well fitted inhibition curve with a large enough effect in the signal ratio in the repeat runs, not every such curve was filed as active; inconclusive = weak or mixed curves, or effect the other way; inactive = no such curve, though single readings can be large or run the other way; the % refers to the signal ratio; also: potency is read from the fitted curve at half-maximal effect); conditions: HEK293T FXR-UAS-bla, beta-lactamase ratio, CDCA-stimulated, 16 h; activity change, negative = inhibition: at 62.6 µM (top of the series) unless noted
# Chain of UniProt Q96RI1 (Q96RI1 whole entry, looked up): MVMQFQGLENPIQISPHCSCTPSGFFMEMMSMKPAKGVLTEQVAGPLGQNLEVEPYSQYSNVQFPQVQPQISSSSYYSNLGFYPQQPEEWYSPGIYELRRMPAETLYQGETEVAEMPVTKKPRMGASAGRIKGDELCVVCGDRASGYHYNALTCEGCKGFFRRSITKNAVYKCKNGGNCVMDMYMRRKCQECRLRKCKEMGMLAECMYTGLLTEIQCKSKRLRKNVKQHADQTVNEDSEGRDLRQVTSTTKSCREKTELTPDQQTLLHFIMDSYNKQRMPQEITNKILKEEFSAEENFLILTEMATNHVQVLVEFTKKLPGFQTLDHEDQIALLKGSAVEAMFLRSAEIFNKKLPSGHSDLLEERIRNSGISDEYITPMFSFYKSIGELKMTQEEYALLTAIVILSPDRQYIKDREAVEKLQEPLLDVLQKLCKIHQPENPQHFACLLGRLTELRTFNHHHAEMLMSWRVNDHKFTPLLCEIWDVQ
# Method in brief: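 Test compounds are pin-transferred onto FXR-bla HEK 293T cells, then chenodeoxycholic acid is added at 50 uM final. After 16 h at 37 °C, LiveBLAzer B/G substrate is applied for 2 h at room temperature and fluorescence read.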
# [15] = biological target: Bile acid receptor (Homo sapiens) (UniProt Q96RI1); experiment: qHTS assay to identify small molecule agonists of the farnesoid-X-receptor (FXR) signaling pathway (AID 743220; active = well fitted activation curve with a large enough effect in the signal ratio in the repeat runs, not every such curve was filed as active; inconclusive = weak or mixed curves, or effect the other way; the % refers to the signal ratio; also: potency is read from the fitted curve at half-maximal effect); conditions: HEK293T FXR-UAS-bla, beta-lactamase FRET ratio, 16 h; activation: at 62.6 µM (top of the series) unless noted
# Method in brief: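 FXR-UAS-bla HEK 293T cells carrying a UAS-driven beta-lactamase reporter were plated for 5 h at 37C/5% CO2, then exposed to DMSO-dissolved Tox21 10K compounds for 16 h at 37C. A LiveBLAzer B/G FRET substrate was loaded for 2 h at room temperature before fluorescence reading.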
# [16] = biological target: Vitamin D3 receptor (Homo sapiens) (UniProt P11473); experiment: qHTS assay to identify small molecule agonists of the vitamin D receptor (VDR) signaling pathway (AID 743222; calls by dose curve; also: potency is read from the fitted curve at half-maximal effect); conditions: HEK293T VDR-UAS-bla, beta-lactamase FRET ratio, 16 h; activation: at 63.5 µM (top of the series) unless noted
# Method in brief: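 Tox21 cell reporter format: VDR-bla line, 16 h compound exposure in 5% CO2 at 37C, then fluorescence intensity after 2 h with LiveBLAzer B/G FRET substrate.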
# [17] = qHTS assay to identify small molecule agonists of the AP-1 signaling pathway - cell viability counter screen (AID 1159525; calls by dose curve; also: nearly all actives have a fitted effect of over 55% in size)
# Method in brief: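 Same-well cytotoxicity counter screen of the Tox21 10K library in ME-180 cells. The readout is ATP-dependent luminescence after 5 h compound treatment. Data are normalised to DMSO and tetra n-octyl ammonium bromide controls.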
# [18] = qHTS assay to identify small molecule agonists of the AP-1 signaling pathway (AID 1159526; calls by dose curve; also: % is scaled to controls: 0 for no effect and ±100 for the full control effect); conditions: ME-180 (cervical carcinoma) AP-1-bla reporter, beta-lactamase FRET ratio, 5 h; activation: at 76.8 µM (top of the series) unless noted
# [19] = biological target: Peroxisome proliferator-activated receptor delta (Homo sapiens) (UniProt Q03181); experiment: qHTS assay to identify small molecule agonists of the peroxisome proliferator-activated receptor delta (PPARd) signaling pathway (AID 743212; calls by dose curve; also: potency is read from the fitted curve at half-maximal effect); conditions: HEK293H PPARd-UAS-bla, beta-lactamase FRET ratio, 17 h; activation: at 62.6 µM (top of the series) unless noted
# Method in brief: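 Tox21 library screened in GeneBLAzer PPARd UAS-bla HEK293H cells. After compound treatment at 37 C, a FRET-based beta-lactamase substrate was applied for 2 h and fluorescence recorded.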
# Tags tell the direction and shape of the fitted curve or compound fluorescence and quenching.
compound,measurement,setting,value
CC(C)C(=O)Nc1ccc([N+](=O)[O-])c(C(F)(F)F)c1,Potency,[1],inactive and inconclusive: 33.5 µM [cytotoxic]
same,Potency,[2],"inconclusive: 8.96 µM [rising, partial curve, poor fit]"
same,Potency,[3],inactive
same,Potency,[4],inactive
same,Potency,[5],"inconclusive: 22.3 µM [cytotoxic, partial curve, poor fit]"
same,Potency,[6],active: 28.1 µM and active: 10.9 µM and active: 33.5 µM
same,Potency,[7],"inconclusive: 2.83 µM [activator, full curve, poor fit]"
same,activation,[7],inconclusive: 11.5%
same,Potency,[8],"inconclusive: 24.5 µM [cytotoxic, partial curve] and inconclusive: 26.8 µM [cytotoxic, partial curve, poor fit]"
O=C(Nc1ccccc1)Nc1ccccc1,Potency,[2],"inconclusive: 31 µM [cytotoxic, partial curve, poor fit]"
same,Potency,[9],"inconclusive: 13.9 µM [falling, partial curve, poor fit]"
same,Potency,[4],inactive
same,Potency,[5],"inconclusive: 17.3 µM [cytotoxic, partial curve, poor fit]"
same,activation,[7],inconclusive: -20.2%
same,Potency,[8],"inconclusive: 438 nM [cytotoxic, single point]"
CC(C)(C)CC(C)(C)c1ccc(Nc2ccc(C(C)(C)CC(C)(C)C)cc2)cc1,Potency,[4],"inconclusive: 0.0054 µM [cytotoxic, full curve, poor fit]"
CC(CC=O)c1ccccc1 (centres undefined),Potency,[2],"inconclusive: 0.0017 µM [rising, full curve, poor fit]"
same,Potency,[4],inactive
same,Potency,[5],inactive
same,activation,[7],inconclusive: -26.2%
CC(=O)N[C@@H](Cc1ccc(O)cc1)C(=O)O,Potency,[4],"inconclusive: 21.3 µM [cytotoxic, partial curve, poor fit]"
same,Potency,[6],inactive
CCCCCCCC/C=C\CCCCCCCCN,Potency,[1],"inconclusive: 33.5 µM [cytotoxic, single point]"
same,Potency,[10],"inconclusive: 33.5 µM [cytotoxic, single point]"
same,"activity change, negative = inhibition",[11],inconclusive: -51.4%
same,Potency,[3],"inconclusive: 29.8 µM [cytotoxic, partial curve, poor fit]"
same,Potency,[12],"inconclusive: 26.8 µM [cytotoxic, single point]"
same,Potency,[4],"inconclusive: 26.8 µM [cytotoxic, single point]"
same,Potency,[5],inconclusive: 33.5 µM [cytotoxic]
same,Potency,[13],inconclusive: 0.8 nM
Cn1c(=O)cc(Oc2ccc(F)cc2F)c2cnc(NCC(C)(C)O)nc21,Potency,[10],"inconclusive: 3.47 µM [inhibitor, partial curve]"
same,Potency,[14],active: 43.6 µM
same,Potency,[2],"inconclusive: 21.9 µM [rising, partial curve]"
same,Potency,[15],inactive
same,Potency,[16],"inconclusive: 24.5 µM [rising, full curve, poor fit]"
same,"activity change, negative = inhibition",[11],inconclusive: 4.36%
same,Potency,[3],"inconclusive: 30.9 µM [rising, partial curve, poor fit]"
same,Potency,[4],inactive
same,Potency,[6],"inconclusive: 77 µM [inhibitor, single point]"
same,activation,[7],inconclusive: -31.1%
O=S(=O)(O)CO,Potency,[4],"inconclusive: 12.1 µM [rising, partial curve, poor fit]"
same,Potency,[6],"inconclusive: 8.51 µM [inhibitor, partial curve]"
same,Potency,[17],inactive
same,Potency,[18],inactive
O=P(O)(O)Oc1ccccc1,Potency,[11],inactive
same,Potency,[4],"inconclusive: 21.9 µM [cytotoxic, partial curve, poor fit]"
same,Potency,[6],inactive
same,Potency,[18],inactive
CCCCC(CC)COC(=O)C(C#N)=C(c1ccccc1)c1ccccc1 (centres undefined),Potency,[10],inactive
same,Potency,[11],"inconclusive: 21.3 µM [inhibitor, partial curve]"
same,Potency,[4],inactive
same,Potency,[6],"inconclusive: 21.7 µM [inhibitor, partial curve] and inconclusive: 33.5 µM [inhibitor, single point]"
same,Potency,[7],"inconclusive: 6.01 µM [inhibitor, partial curve, poor fit]"
same,activation,[7],inconclusive: -26.9%
NC(=O)C(c1ccccc1)(c1ccccc1)[C@@H]1CCN(CCc2ccc3c(c2)CCO3)C1,Potency,[19],"inconclusive: 33.5 µM [rising, partial curve, poor fit]"
same,Potency,[1],"inconclusive: 13.3 µM [cytotoxic, full curve, poor fit]"
same,"ratio activity, negative = inhibition",[10],inconclusive: -32.2%
same,Potency,[14],inactive
same,Potency,[2],"inconclusive: 0.106 µM [rising, partial curve, poor fit]"
same,Potency,[15],"inconclusive: 13.3 µM [rising, partial curve]"
same,Potency,[3],"inconclusive: 29.8 µM [cytotoxic, partial curve]"
same,Potency,[4],inactive
same,Potency,[6],"inconclusive: 33.5 µM [inhibitor, single point]"
same,Potency,[7],"inconclusive: 1.34 µM [falling, partial curve, poor fit]"
NS(=O)(=O)c1cc2c(cc1Cl)NC=NS2(=O)=O,Potency,[10],inactive
same,Potency,[16],inactive
same,"activity change, negative = inhibition",[11],inconclusive: 31.2% [at 78.8 µM]
same,Potency,[4],"inconclusive: 19.6 µM [rising, single point]"
same,Potency,[5],inactive
